The structures appear in SMILES notation. The whole screen tested about 52,000 compounds, of which about 1,700 (3.3%) were called active. No stated cut-off is given here; in the data, active means survival mostly below about 52% (no sharp cut-off); inactive means mostly above about 56%. The list shows a part of the results.

This assay relates to Wild type. Description: growth inhibition of S. aureus wild type versus tarO mutant, primary screen, teichoic acid synthesis inhibitors, RN4220, OD600 (AID 463173). The settings on record: S. aureus RN4220 wild type/DeltatarO growth, OD600, 18 h, stronger effect = lower value, screened at 18.75 µg/mL (by protocol).
As for `Cc1ccc(S(=O)(=O)Cn2nnnc2CN(Cc2ccco2)Cc2cccs2)cc1`, the survival was inactive: 112%.

Turning to `CCc1ccc(NC(=O)CSc2ccc3nc(-c4ccc(OC)cc4)cn3n2)cc1`, the survival is inactive: 65%.

For the molecule `Cc1ccc(C(=O)NCC(=O)OCc2cc(=O)n3ccsc3n2)cc1`, the survival is inactive: 64%.

For `CC(C)(C)C(=O)CSc1nnc(-c2ccccc2)o1`, the survival is inactive: 105%.

Take `CCN(CC)S(=O)(=O)c1ccc2c(c1)N(CC(=O)Nc1ccc(OC)cc1)C(=O)CS2`: the survival is inactive: 102%.

Take `Cc1ccccc1CNC(=O)c1oc2c(c1C)-c1nn(Cc3ccc(Cl)cc3)cc1CC2`: the survival is inactive: 80%.

Take `COc1nc(OC)nc(N2CCC(C(=O)NCC3CCCCC3)CC2)n1`: the survival is inactive: 103%.

Regarding `Clc1nc(Cl)nc(NNc2nc(Cl)nc(Cl)n2)n1`, the survival is inactive: 106%.

`CCOC(=O)CNc1c(-c2ccc(OC)cc2)nc2ccc(Cl)cn12`: the survival was inactive: 115%.

`COC(=O)CSc1nc2sc3c(c2c(=O)n1-c1ccc(C)cc1)CC(C(C)C)OC3` (stereo not given): the survival was inactive: 78%.

For `CCOc1ccc(NC(=O)C2CCCN(c3cnccn3)C2)cc1` (stereo not given), the survival was inactive: 87%.

`CCOc1ccc(Cl)cc1CNCCCSc1nnnn1C`: the survival is inactive: 88%.

Take `Cc1ccc(NC(=O)CN2C(=O)C(C)(C)Oc3ccc(C(=O)N4CCCC4)cc32)cc1`: the survival is inactive: 103%.

In the case of `Cc1ccc(Nc2nc(C(=O)NCC3CCCO3)cs2)cc1` (stereo not given), the survival is inactive: 105%.

For `COC(=O)c1ccccc1NC(=O)c1cnn(-c2ccc(F)cc2)c1-n1cccc1`, the survival was inactive: 87%.

As for `Cc1ccc(CN(C(=O)COc2ccccc2[N+](=O)[O-])c2ccccn2)cc1`, the survival is inactive: 78%.

Consider `NCCCNC(=O)c1ccco1`, for which the survival was inactive: 115%.

`CCC(CC)C(=O)Nc1nnc(S(=O)(=O)N2CCc3ccccc32)s1`: the survival is inactive: 81%.

For `Cc1cccc(OCC(=O)NCCc2nc3ccccc3[nH]2)c1C`, the survival was inactive: 73%.

For `O=C(NCc1ccccc1Cl)C1CCN(C(=O)N2CCOc3ccccc32)CC1`, the survival is inactive: 83%.

`CCCN(CCC)CCNC(=O)CN1C(=O)COc2ccc(S(=O)(=O)N3CCOCC3)cc21`: the survival was inactive: 77%.

As to `CCOc1ccc(-n2nc(CO)c(C(=O)NCc3ccccn3)n2)cc1`, the survival was inactive: 90%.

Consider `Cc1ccc(OCCCCn2cnc3ccccc32)cc1`, for which the survival was active: 29%.

In the case of `CCN(CC)S(=O)(=O)c1ccc2c(c1)nc(CN(C)C(=O)Nc1ccc(F)cc1)n2C`, the survival is inactive: 89%.

As to `CS(=O)(=O)c1ccccc1-c1nnc(NC(=O)c2ccc3c(c2)OCCO3)o1`, the survival is active: -6%.

As for `COc1ccc(CNC(=O)CSc2n[nH]c(-c3ccc(F)cc3)n2)cc1`, the survival was inactive: 120%.

With `O=C(Nc1nc2n(n1)C(c1ccccc1)C=C(c1ccccc1)N2)c1ccccc1` (stereo not given), the survival was inactive: 88%.

For the molecule `COc1cc(Cl)c(C)cc1NC(=O)CCc1c(C)nc2c3cccnc3nn2c1C`, the survival is inactive: 85%.

Turning to `O=C(Nc1ccc(C(=O)N2CCCCC2)cc1)c1nsc2ccccc12`, the survival is inactive: 59%.

Turning to `COc1ccc(CNC(=O)CN(c2ccc(C)cc2)S(=O)(=O)c2c(C)noc2C)cc1`, the survival is inactive: 83%.

As to `COc1ccc(CNC(=O)C(CCSC)NS(=O)(=O)c2ccc3c(c2)oc(=O)n3C)cc1` (stereo not given), the survival is inactive: 73%.

Take `Fc1ccc(Nc2nc(SCc3cccc(Cl)c3)nc3ccccc23)cc1`: the survival is inactive: 79%.

For the molecule `Cc1ccc(C)c(CN2C(=O)c3ccccc3S(=O)(=O)c3ccc(C(=O)Nc4cc(F)ccc4F)cc32)c1`, the survival is inactive: 91%.

With `COc1ccc(NC(=O)c2nnn(CC(=O)Nc3c(C)cc(C)cc3C)c2N)cc1OC`, the survival was inactive: 63%.

As to `CNC(=O)C(=O)NCC(c1ccc2c(c1)OCO2)N1CCOCC1` (stereo not given), the survival was inactive: 113%.

For `Cc1cc(C)cc(NC(=O)CSc2nc3c([nH]c4ccccc43)c(=O)n2-c2ccc(F)cc2)c1`, the survival is inactive: 118%.

Take `CN(CCc1ccccn1)Cc1ccccc1`: the survival was inactive: 93%.

Take `CCOc1ccc(-c2cc(NC(=O)c3cccc(Cl)c3)c(C(=O)OC)s2)cc1`: the survival was inactive: 81%.

As to `CCCOc1ccc(C(=O)Nc2nonc2-c2ccc(OCC)cc2)cc1`, the survival was inactive: 91%.

Regarding `CC(=O)N(Cc1cccnc1)Cc1cc2cc3c(cc2n2nnnc12)OCO3`, the survival is inactive: 102%.

For the molecule `CC1=C(C(=O)Nc2ccccc2)C(c2ccc(C)cc2)n2nc(SCc3ccccc3C)nc2N1` (stereo not given), the survival was inactive: 84%.

In the case of `O=C(c1ccc(F)cc1F)N1CCC(c2nc(-c3ccc(S(=O)(=O)N4CCCC4)cc3)no2)CC1`, the survival was inactive: 99%.

Turning to `O=C1CCCC(O)=C1C=NCc1cccnc1`, the survival is inactive: 105%.

In the case of `COc1ccc(CNC(=O)C2=C(C)C(=O)OC23CCCCC3)cc1OC`, the survival was inactive: 80%.

For `CCOC(=O)c1ccc(NC(=O)c2cn(-c3ccccc3)nc2-c2ccc(C)cc2)cc1`, the survival was inactive: 81%.

`O=C(C1CCN(S(=O)(=O)c2ccccc2)CC1)N1CCCCC1`: the survival was inactive: 96%.

On to `Cc1oc2cc3oc(=O)c(CC(=O)N4CCCCC4)c(C)c3cc2c1C`, for which the survival is inactive: 82%.

Take `CC(=O)Nc1ccc(/C=C2/SC(=Nc3ccccc3)NC2=O)cc1`: the survival was inactive: 106%.

As for `CCCc1ccc(S(=O)(=O)N2CCC(c3nnnn3-c3ccc(OC)cc3)CC2)cc1`, the survival was inactive: 85%.

Take `N#CC1=C2SCN(C3CCCCC3)CN2C(=O)CC1c1ccc(Br)cc1` (stereo not given): the survival is inactive: 84%.

For `CCN(CC)C(=O)c1cc(-c2ccccc2)on1`, the survival is inactive: 119%.

Turning to `CCOc1cc(C#N)c(NC(=O)c2ccc(OC)c(S(=O)(=O)N3CCN(c4ccccc4)CC3)c2)cc1OCC`, the survival was inactive: 116%.

Turning to `CCOC(=O)C1CCN(CC(=O)N2C(C)CCCC2C)CC1` (stereo not given), the survival is inactive: 108%.

In the case of `CCCOc1ccc(CNC(=O)c2oc3ccc4c(c3c2C)C(=O)CC(C)(CC)O4)cc1` (stereo not given), the survival was inactive: 70%.

For `COc1ccc(CNC(=O)Cn2c(=O)c3cccn3c3ccccc32)cc1`, the survival is inactive: 84%.

In the case of `CSc1nc(-c2ccccc2Cl)nc2c1Cc1c(CO)cnc(C)c1O2`, the survival was inactive: 109%.

For `CCc1nnc2c(N3CCN(c4cccc(C(F)(F)F)c4)CC3)nc3ccccc3n12`, the survival was inactive: 120%.

For the molecule `O=C1C2=C(Nc3ncnn3C2c2ccccc2)c2ccccc21` (stereo not given), the survival is inactive: 114%.

For `O=C(Cn1c(=O)n(Cc2ccco2)c(=O)c2oc3ccccc3c21)Nc1ccc(F)c(Cl)c1`, the survival was inactive: 23%.

Consider `COc1ccc(N(CC(=O)N2CCc3ccccc3C2)S(=O)(=O)c2ccc(C)cc2)cc1Cl`, for which the survival was inactive: 71%.

`COc1cccc(CNc2ncnc3onc(C)c23)c1`: the survival was inactive: 140%.

Turning to `O=C(Nc1c(C(=O)N2CCN(c3ccccc3F)CC2)oc2ccccc12)c1ccco1`, the survival is inactive: 69%.

For `O=C(CSc1nc(-c2ccco2)cc(C(F)(F)F)n1)N1CCCC1`, the survival is inactive: 98%.

Consider `CN1CCN(CCCNC(=O)c2cnn(-c3ccc(F)cc3)c2-n2cccc2)CC1`, for which the survival is inactive: 84%.

For `CNc1ccc(-c2nc(-c3ccccc3C)no2)cc1[N+](=O)[O-]`, the survival is inactive: 88%.

As to `c1ccc(-c2cc3ncc4c(n3n2)-c2ccccc2OC4)cc1`, the survival is inactive: 71%.

For `COc1ccc(C2=C(C(C)=O)Sc3nnc(-c4ccc(Cl)cc4)n3N2C(C)=O)cc1OC`, the survival was inactive: 75%.

Consider `Cc1ccc(S(=O)(=O)c2cnc(SCC(=O)Nc3ccc4c(c3)OCCO4)[nH]c2=O)cc1Cl`, for which the survival was inactive: 71%.

Take `CCCn1c2ccccc2c2cnn(CC(=O)NCCCN3CCCCC3)c(=O)c21`: the survival was inactive: 78%.

For `CCOc1ccc(NC(=O)c2sc3nc4c(c(-c5ccccc5)c3c2N)C(=O)CC(C)(C)C4)cc1`, the survival was inactive: 74%.

On to `O=C(NCCc1ccccc1)c1ccc2nc(N3CCCCC3)sc2c1`, for which the survival is inactive: 81%.

Regarding `Nc1nonc1-n1nnc(C(=O)N=Nc2c(O)[nH]c3ccc(Br)cc23)c1-c1ccccc1`, the survival was inactive: 119%.

As to `Cc1ccccc1NC(=O)c1cn(-c2ccccc2)nc1-c1ccccc1`, the survival was inactive: 92%.

As to `Cc1ccccc1-c1ccnc2[nH]n(-c3ccccc3)c(=O)c12`, the survival is inactive: 78%.

Consider `O=S(=O)(NCC(c1ccco1)N1CCOCC1)c1ccc(Br)cc1` (stereo not given), for which the survival was inactive: 77%.

As to `Cc1ccc2oc(C(=O)N(Cc3ccc(N(C)C)cc3)CC3CCCO3)c(C)c2c1` (stereo not given), the survival is inactive: 107%.

Regarding `CCOC(=O)c1c(NC(=O)CSc2cn(CCNC(=O)c3cccc(C(F)(F)F)c3)c3ccccc23)sc2c1CCC2`, the survival is inactive: 82%.

On to `COC(=O)Cn1cc(C2C(C#N)=C(N)OC3=C2C(=O)CC(C)(C)C3)c2ccccc21` (stereo not given), for which the survival was inactive: 103%.

Take `CC(NC(=O)C1CCN(S(=O)(=O)c2ccc(F)cc2)CC1)c1ccccc1` (stereo not given): the survival is inactive: 127%.

Regarding `CC1CCC(N2CC(=O)N(C3CCCCC3)C(c3ccc(Cl)cc3)C2=O)CC1` (stereo not given), the survival is inactive: 71%.

`O=C(Nc1ccc(Br)cc1)c1cc(-c2cccs2)nc2ccccc12`: the survival was inactive: 94%.

In the case of `COc1cccc(C(=O)Nc2nc3ccc(S(=O)(=O)N4CCCC4)cc3s2)c1`, the survival was inactive: 71%.

As for `CC(C)c1ccc(NC(=O)CSC2=Nc3ccccc3C3=NC(CC(=O)NCc4cccs4)C(=O)N23)cc1` (stereo not given), the survival was inactive: 85%.

`CC(=O)Nc1ccc(NC(=O)CSc2nccn2Cc2ccc3c(c2)OCO3)cc1`: the survival was inactive: 72%.

Turning to `COc1cc(NC(=O)CSc2ncc3c(n2)-c2ccc(Cl)cc2N(Cc2ccccc2)S3(=O)=O)cc(OC)c1`, the survival is inactive: 65%.

In the case of `Cc1ccc(NS(=O)(=O)c2ccc(-c3cnc(C4CC4)o3)cc2)cc1N(C)C`, the survival is inactive: 127%.

For the molecule `COc1ccc(-c2cc(C(=O)Oc3ccc(C)cc3)c3ccccc3n2)cc1`, the survival is active: 4%.

Take `CC(C)Oc1ccc(C(=O)N2CCC(c3nc4ccccc4o3)CC2)cc1`: the survival was inactive: 119%.

On to `C=CCn1c(=O)[nH]c(=O)n(CC=C)c1=O`, for which the survival was inactive: 111%.

As to `CCOc1ccccc1CNC(=O)CCc1c(C)nn(-c2ccc(N3CCCCC3)nn2)c1C`, the survival is inactive: 70%.

(Values after PubChem BioAssay AID463173 (ICCB-Longwood Screening Facility, Harvard Medical School, 2010).)
